Data taken from the supplement of paper PMC4967469.
IC50 is the fitted dose that halves viability relative to control wells, and lower means more sensitive; where the fit passes the top or lowest dose, that dose stands as a limit. The AUC spans the tested range (256-fold, ending at the top dose) of the same fit; values near 1 show little effect. For some assays here: The top dose, if marked as inferred, was derived from the fitted curves, not read from the paper.

Experiments:
Assay in all cases: Viability of human cancer cell lines after 72 h of drug (GDSC screen)
MS-275 = compound: Nc1ccccc1NC(=O)c1ccc(CNC(=O)OCc2cccnc2)cc1 [MS-275]; details: top dose 5 µM; top dose inferred
Description: (§1)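 Human cancer cell lines in 384-well plates, medium with 10% serum, drug for 72 h over a 256-fold dose range (nine 2-fold or five 4-fold steps up to the top dose). Adherent lines were fixed and stained with the nucleic acid dye Syto60, suspension lines read with resazurin; signal relative to control wells, capped at 0 and 100%. One two-parameter sigmoid per drug and line, fitted in a mixed model over all curves with the slope shared within a line.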

AV-951 = compound: COc1cc2nccc(Oc3ccc(NC(=O)Nc4cc(C)on4)c(Cl)c3)c2cc1OC [AV-951]; details: top dose 0.128 µM; top dose inferred
Description: as §1

HG-6-64-1 = compound: CCN1CCN(Cc2ccc(NC(=O)c3ccc(C)c(/C=C/c4cnc5[nH]ccc5c4OC)c3)cc2C(F)(F)F)CC1 [HG-6-64-1]; details: top dose 5.12 µM; top dose inferred
Description: as §1

PF-4708671 = compound: CCc1cncnc1N1CCN(Cc2nc3ccc(C(F)(F)F)cc3[nH]2)CC1 [PF-4708671]; details: top dose 10 µM; top dose inferred
Description: as §1

Trametinib = compound: CC(=O)Nc1cccc(-n2c(=O)n(C3CC3)c(=O)c3c(Nc4ccc(I)cc4F)n(C)c(=O)c(C)c32)c1 [Trametinib]; details: top dose 1 µM
Description: as §1

I-BET-762 = compound: CCNC(=O)C[C@@H]1N=C(c2ccc(Cl)cc2)c2cc(OC)ccc2-n2c(C)nnc21 [I-BET-762]; details: top dose 20 µM; top dose inferred
Description: as §1

KIN001-244 = compound: O=C(NC(COc1ccc2[nH]c(=O)[nH]c2c1)c1ccccc1)c1cccn(Cc2ccc(F)c(F)c2)c1=O [KIN001-244]; details: top dose 20 µM; top dose inferred
Description: as §1

Row | Cell Line | AUC (MS-275) | IC50 (MS-275) [nM] | AUC (AV-951) | IC50 (AV-951) [nM] | AUC (HG-6-64-1) | IC50 (HG-6-64-1) [nM] | AUC (PF-4708671) | IC50 (PF-4708671) [nM] | AUC (Trametinib) | IC50 (Trametinib) [nM] | AUC (I-BET-762) | IC50 (I-BET-762) [nM] | AUC (KIN001-244) | IC50 (KIN001-244) [nM]
1 | SF268 (glioma, adherent) | 0.823 | 3260 | 0.983 | > 128 | 0.691 | 1150 | 0.979 | > 10000 | 0.868 | > 1000 | 0.872 | > 20000 | 0.846 | 16400
2 | SF539 (glioma, adherent) | 0.388 | 160 | 0.964 | > 128 | 0.803 | 2250 | 0.963 | > 10000 | 0.536 | 77.6 | 0.979 | > 20000 | 0.918 | > 20000
3 | SH-4 (melanoma, adherent) | 0.668 | 1200 | 0.972 | > 128 | 0.625 | 856 | 0.914 | > 10000 | 0.104 | < 3.91 | 0.848 | > 20000 | 0.706 | 6670
4 | SHP-77 (small cell lung carcinoma, semi-adherent) | 0.851 | 3210 | 0.989 | > 128 | 0.963 | > 5120 | 0.97 | > 10000 | 0.991 | > 1000 | 0.872 | 15700 | 0.91 | > 20000
5 | SIMA (neuroblastoma, adherent) | 0.932 | > 5000 | 0.978 | > 128 | 0.879 | > 5120 | 0.983 | > 10000 | 0.71 | 267 | 0.817 | 13100 | 0.851 | 18500
6 | SJSA-1 (bone, adherent) | 0.704 | 1280 | 0.975 | > 128 | 0.826 | 3650 | 0.972 | > 10000 | 0.717 | 280 | 0.772 | 8750 | 0.925 | > 20000
7 | SK-ES-1 (Ewing sarcoma, semi-adherent) | 0.843 | 3900 | 0.981 | > 128 | 0.743 | 1670 | 0.974 | > 10000 | 0.983 | > 1000 | 0.926 | > 20000 | 0.839 | 14900
8 | SK-LMS-1 (soft tissue, adherent) | 0.869 | 4230 | 0.986 | > 128 | 0.549 | 433 | 0.949 | > 10000 | 0.28 | 15.4 | 0.838 | 12500 | 0.842 | 13100
9 | SK-MEL-1 (melanoma, suspension) | 0.931 | > 5000 | 0.989 | > 128 | 0.958 | > 5120 | 0.978 | > 10000 | 0.225 | 11.4 | 0.992 | > 20000 | 0.963 | > 20000
10 | SK-MEL-2 (melanoma, adherent) | 0.96 | > 5000 | 0.985 | > 128 | 0.786 | 2300 | 0.984 | > 10000 | 0.108 | < 3.91 | 0.986 | > 20000 | 0.953 | > 20000
11 | SK-MM-2 (myeloma, suspension) | 0.568 | 483 | 0.98 | > 128 | 0.915 | > 5120 | 0.987 | > 10000 | 0.985 | > 1000 | 0.757 | 7170 | 0.865 | 19000
12 | SK-N-DZ (neuroblastoma, adherent) | 0.712 | 1230 | 0.985 | > 128 | 0.958 | > 5120 | 0.96 | > 10000 | 0.801 | 482 | 0.952 | > 20000 | 0.924 | > 20000
13 | SK-UT-1 (soft tissue, adherent) | 0.783 | 1900 | 0.989 | > 128 | 0.497 | 314 | 0.98 | > 10000 | 0.906 | > 1000 | 0.989 | > 20000 | 0.913 | > 20000
14 | SLVL (B-cell lymphoma, suspension) | 0.433 | 203 | 0.976 | > 128 | 0.826 | 3360 | 0.979 | > 10000 | 0.926 | > 1000 | 0.738 | 6260 | 0.724 | 5660
15 | SNB75 (glioma, adherent) | 0.889 | > 5000 | 0.966 | > 128 | 0.614 | 762 | 0.979 | > 10000 | 0.815 | 906 | 0.868 | > 20000 | 0.978 | > 20000
16 | SNU-C1 (large intestine, suspension) | 0.859 | > 5000 | 0.98 | > 128 | 0.897 | > 5120 | 0.943 | > 10000 | 0.221 | 6.23 | 0.97 | > 20000 | 0.92 | > 20000
17 | SR (lymphoid neoplasm, suspension) | 0.517 | 346 | 0.961 | > 128 | 0.793 | 2080 | 0.919 | > 10000 | 0.876 | 827 | 0.86 | 14100 | 0.335 | 459
18 | ST486 (Burkitt lymphoma, suspension) | 0.661 | 825 | 0.982 | > 128 | 0.683 | 968 | 0.94 | > 10000 | 0.989 | > 1000 | 0.638 | 2860 | 0.501 | 1260
19 | SU-DHL-4 (B-cell lymphoma, suspension) | 0.528 | 365 | 0.996 | > 128 | 0.644 | 711 | 0.986 | > 10000 | 0.997 | > 1000 | 0.813 | 7290 | 0.913 | 14000
